Experimental data published in the supplement of paper PMC4967469.
The IC50 comes from the fitted curve, where viability falls to half of the control; a limit (>, <) means that the fit lies beyond the doses tested. The AUC spans the tested range (256-fold, ending at the top dose) of the same fit: 1 means no effect, lower means more sensitive. For some of these results: An inferred top dose was calculated from the reported fits. For some of these results: An entry number marks a drug with two screens in the source, which often give different values.

Legend:
Assay in all cases: Viability of human cancer cell lines after 72 h of drug (GDSC screen)
SB-505124 = compound: Cc1cccc(-c2[nH]c(C(C)(C)C)nc2-c2ccc3c(c2)OCO3)n1 [SB-505124]; conditions: top dose 10 µM; top dose inferred
Experimental: (§1)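 Human cancer cell lines in 384-well plates, medium with 10% serum, drug for 72 h over a 256-fold dose range (nine 2-fold or five 4-fold steps up to the top dose). Adherent lines were fixed and stained with the nucleic acid dye Syto60, suspension lines read with resazurin; signal relative to control wells, capped at 0 and 100%. One two-parameter sigmoid per drug and line, fitted in a mixed model over all curves with the slope shared within a line.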

Tretinoin = compound: CC1=C(/C=C/C(C)=C/C=C/C(C)=C/C(=O)O)C(C)(C)CCC1 [Tretinoin]; conditions: top dose 10 µM; top dose inferred
Experimental: as §1

WH-4-023 = compound: COc1ccc(N(C(=O)Oc2c(C)cccc2C)c2ccnc(Nc3ccc(N4CCN(C)CC4)cc3)n2)c(OC)c1 [WH-4-023]; conditions: top dose 5.12 µM; top dose inferred
Experimental: as §1

PI-103 = compound: Oc1cccc(-c2nc(N3CCOCC3)c3oc4ncccc4c3n2)c1 [PI-103]; conditions: top dose 10.24 µM
Experimental: as §1

UNC0638 = compound: COc1cc2c(NC3CCN(C(C)C)CC3)nc(C3CCCCC3)nc2cc1OCCCN1CCCC1 [UNC0638]
Experimental: as §1

BX-795 = compound: O=C(NCCCNc1nc(Nc2cccc(NC(=O)N3CCCC3)c2)ncc1I)c1cccs1 [BX-795]; conditions: top dose 5 µM; top dose inferred
Experimental: as §1

GSK690693 = compound: CCn1c(-c2nonc2N)nc2c(C#CC(C)(C)O)ncc(OC[C@H]3CCCNC3)c21 [GSK690693]; conditions: top dose 10.24 µM; top dose inferred
Experimental: as §1

[1] = top dose 20 µM, screen: GDSC drug entry 1236, top dose inferred
[2] = top dose 40 µM, screen: GDSC drug entry 245

Row | Cell Line | AUC (SB-505124) | IC50 (SB-505124) [µM] | AUC (Tretinoin) | IC50 (Tretinoin) [µM] | AUC (WH-4-023) | IC50 (WH-4-023) [µM] | AUC (PI-103) | IC50 (PI-103) [µM] | AUC (UNC0638; [1]) | IC50 (UNC0638; [1]) [µM] | AUC (UNC0638; [2]) | IC50 (UNC0638; [2]) [µM] | AUC (BX-795) | IC50 (BX-795) [µM] | AUC (GSK690693) | IC50 (GSK690693) [µM]
1 | NCI-H1838 (lung adenocarcinoma, adherent) | 0.977 | > 10 | 0.948 | > 10 | 0.979 | > 5.12 | 0.937 | > 10.2 | 0.89 | > 20 | 0.938 | > 40 | 0.911 | > 5 | 0.985 | > 10.2
2 | NCI-H1869 (lung squamous cell carcinoma, adherent) | 0.983 | > 10 | 0.985 | > 10 | 0.915 | > 5.12 | 0.755 | 3.87 | 0.959 | > 20 | 0.893 | > 40 | 0.903 | > 5 | 0.983 | > 10.2
3 | NCI-H1876 (small cell lung carcinoma, adherent) | 0.978 | > 10 | 0.962 | > 10 | 0.982 | > 5.12 | 0.45 | 0.467 | 0.775 | 7.99 | 0.804 | 20.4 | 0.796 | 2.37 | 0.898 | > 10.2
4 | NCI-H1975 (lung adenocarcinoma, adherent) | 0.981 | > 10 | 0.967 | > 10 | 0.6 | 0.628 | 0.403 | 0.333 | 0.832 | 15.4 | 0.777 | 18.4 | 0.845 | 4.44 | 0.916 | > 10.2
5 | NCI-H2081 (small cell lung carcinoma, suspension) | 0.983 | > 10 | 0.987 | > 10 | 0.987 | > 5.12 | 0.727 | 2.95 | 0.889 | > 20 | 0.851 | 33.3 | 0.901 | > 5 | 0.935 | > 10.2
6 | NCI-H2135 (non-small cell lung carcinoma, adherent) | 0.99 | > 10 | 0.987 | > 10 | 0.974 | > 5.12 | 0.638 | 1.52 | 0.99 | > 20 | 0.798 | 18.3 | 0.991 | > 5 | 0.989 | > 10.2
7 | NCI-H2141 (small cell lung carcinoma, suspension) | 0.894 | > 10 | 0.99 | > 10 | 0.991 | > 5.12 | 0.66 | 1.75 | 0.953 | > 20 | 0.863 | 32.9 | 0.946 | > 5 | 0.985 | > 10.2
8 | NCI-SNU-1 (stomach, suspension) | 0.96 | > 10 | 0.979 | > 10 | 0.985 | > 5.12 | 0.489 | 0.598 | 0.821 | 12.1 | 0.594 | 4.57 | 0.98 | > 5 | 0.974 | > 10.2
9 | NCI-SNU-5 (stomach, suspension) | 0.984 | > 10 | 0.955 | > 10 | 0.968 | > 5.12 | 0.973 | > 10.2 | 0.854 | 16.1 | 0.987 | > 40 | 0.957 | > 5 | 0.989 | > 10.2
10 | NCI-SNU-16 (stomach, suspension) | 0.933 | > 10 | 0.969 | > 10 | 0.283 | 0.0847 | 0.991 | > 10.2 | 0.801 | 8.43 | 0.94 | > 40 | 0.852 | 3.18 | 0.991 | > 10.2
11 | NEC8 (testis, adherent) | 0.987 | > 10 | 0.975 | > 10 | 0.917 | > 5.12 | 0.925 | > 10.2 | 0.85 | 11.8 | 0.643 | 5.8 | 0.894 | 4.39 | 0.977 | > 10.2
12 | NH-12 (neuroblastoma, adherent) | 0.971 | > 10 | 0.978 | > 10 | 0.983 | > 5.12 | 0.62 | 1.43 | 0.952 | > 20 | 0.79 | 20.3 | 0.786 | 2.45 | 0.968 | > 10.2
13 | NKM-1 (acute myeloid leukaemia, suspension) | 0.976 | > 10 | 0.866 | 9.41 | 0.964 | > 5.12 | 0.155 | 0.0533 | 0.755 | 6.97 | 0.629 | 5.72 | 0.61 | 0.631 | 0.694 | 2.28
14 | NMC-G1 (glioma, adherent) | 0.884 | > 10 | 0.98 | > 10 | 0.849 | > 5.12 | 0.532 | 0.8 | 0.794 | 11.6 | 0.687 | 9.51 | 0.9 | > 5 | 0.95 | > 10.2
15 | NOMO-1 (acute myeloid leukaemia, suspension) | 0.94 | > 10 | 0.225 | 0.087 | 0.982 | > 5.12 | 0.34 | 0.216 | 0.737 | 6.59 | 0.625 | 5.8 | 0.762 | 2.02 | 0.957 | > 10.2
16 | NOS-1 (osteosarcoma, adherent) | 0.962 | > 10 | 0.838 | 9.13 | 0.576 | 0.543 | 0.409 | 0.341 | 0.804 | 12.9 | 0.609 | 5.36 | 0.839 | 4.59 | 0.638 | 1.68
